# Assay results taken from the supplement of paper PMC8728848.
# The list shows a part of the results.
# B1: Nc3LysM (protein)
# chain: QFTVPPDTTAEPNTIKTCTWWHVAGSGDSCTSIASTYGITSEQFARWDMETTDSPKNPSVATACKLTVGNSYCIENNFGQDDPPTPSISSSTLIGTATTSTTASTTTGNGISTPTPIQEGMETATTTTSSGNGITTPTPTQAGMETVGNCDRFHLVKSGDQCGTIASTYGITLANFYSWNPAVGTSCQSLWLDTYVCVRTIGFVPPKTTTTTTKKPTSTTSAGGVATPTPTQPGMETVSGCKKFHKGRGNVSTVASGDQCGTIATRYGISLANFYSWNPAVGSSCQTLWLDYYVCVGR
# Tests used:
# Test in all cases: glycan array binding signal (z-score within array); higher = stronger binding
# Details in all cases: glycan notation: IUPAC condensed, linker removed
# [1] = target: Gal(b1-4)GlcNAc(b1-2)Man(a1-6)[Man(a1-3)]Man(b1-4)GlcNAc(b1-4)GlcNAc
# Outline: (§1)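 The binding signal is a Z-score computed within each array and averaged over linkers. Arrays of the same protein sequence at different concentrations or buffers were also averaged together. Data originate from 3228 arrays in the Consortium for Functional Glycomics database, kept only where the protein sequence was available.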
# [2] = target: Gal(b1-4)GlcNAc(b1-2)[Gal(b1-4)GlcNAc(b1-4)]Man(a1-3)[Gal(b1-4)GlcNAc(b1-2)Man(a1-6)]Man(b1-4)GlcNAc(b1-4)GlcNAc
# Outline: as §1
# [3] = target: Gal(b1-4)GlcNAc(b1-2)[Gal(b1-4)GlcNAc(b1-4)]Man(a1-3)[Gal(b1-4)GlcNAc(b1-2)[Gal(b1-4)GlcNAc(b1-6)]Man(a1-6)]Man(b1-4)GlcNAc(b1-4)GlcNAc
# Outline: as §1
# [4] = target: Gal(b1-4)GlcNAc(b1-2)[Gal(b1-4)GlcNAc(b1-4)]Man(a1-3)[GlcNAc(b1-4)][Gal(b1-4)GlcNAc(b1-2)Man(a1-6)]Man(b1-4)GlcNAc(b1-4)GlcNAc
# Outline: as §1
# [5] = target: Gal(b1-4)GlcNAc(b1-2)[Gal(b1-4)GlcNAc(b1-4)]Man(a1-3)[GlcNAc(b1-4)][Gal(b1-4)GlcNAc(b1-2)[Gal(b1-4)GlcNAc(b1-6)]Man(a1-6)]Man(b1-4)GlcNAc(b1-4)GlcNAc
# Outline: as §1
# [6] = target: Gal(b1-4)GlcNAc(b1-2)[Gal(b1-4)GlcNAc(b1-6)]Man(a1-6)[Gal(b1-4)GlcNAc(b1-2)Man(a1-3)]Man(b1-4)GlcNAc(b1-4)GlcNAc
# Outline: as §1
# [7] = target: Gal(b1-4)GlcNAc(b1-2)[Gal(b1-4)GlcNAc(b1-6)]Man(a1-6)[Gal(b1-4)GlcNAc(b1-2)Man(a1-3)]Man(b1-4)GlcNAc(b1-4)[Fuc(a1-6)]GlcNAc
# Outline: as §1
# [8] = target: Gal(b1-4)GlcNAc(b1-2)[Gal(b1-4)GlcNAc(b1-6)]Man(a1-6)[GlcNAc(b1-4)][Gal(b1-4)GlcNAc(b1-2)Man(a1-3)]Man(b1-4)GlcNAc(b1-4)GlcNAc
# Outline: as §1
# [9] = target: Gal(b1-4)GlcNAc(b1-2)[Gal(b1-4)GlcNAc(b1-6)]Man(a1-6)[GlcNAc(b1-4)][Gal(b1-4)GlcNAc(b1-2)[Gal(b1-4)GlcNAc(b1-4)]Man(a1-3)]Man(b1-4)GlcNAc(b1-4)[Fuc(a1-6)]GlcNAc
# Outline: as §1
# [10] = target: Gal(b1-4)GlcNAc(b1-3)Gal(b1-3)GalNAc
# Outline: as §1
# [11] = target: Gal(b1-4)GlcNAc(b1-3)Gal(b1-3)GlcNAc
# Outline: as §1
# [12] = target: Gal(b1-4)GlcNAc(b1-3)Gal(b1-4)Glc
# Outline: as §1
# [13] = target: Gal(b1-4)GlcNAc(b1-3)Gal(b1-4)GlcNAc
# Outline: as §1
# [14] = target: Gal(b1-4)GlcNAc(b1-3)Gal(b1-4)GlcNAc(b1-2)Man(a1-3)[Gal(b1-4)GlcNAc(b1-3)Gal(b1-4)GlcNAc(b1-2)Man(a1-6)]Man(b1-4)GlcNAc(b1-4)GlcNAc
# Outline: as §1
# [15] = target: Gal(b1-4)GlcNAc(b1-3)Gal(b1-4)GlcNAc(b1-2)Man(a1-3)[Gal(b1-4)GlcNAc(b1-3)Gal(b1-4)GlcNAc(b1-2)Man(a1-6)]Man(b1-4)GlcNAc(b1-4)[Fuc(a1-6)]GlcNAc
# Outline: as §1
# [16] = target: Gal(b1-4)GlcNAc(b1-3)Gal(b1-4)GlcNAc(b1-2)[Gal(b1-4)GlcNAc(b1-3)Gal(b1-4)GlcNAc(b1-6)]Man(a1-6)[Gal(b1-4)GlcNAc(b1-3)Gal(b1-4)GlcNAc(b1-2)Man(a1-3)]Man(b1-4)GlcNAc(b1-4)GlcNAc
# Outline: as §1
# [17] = target: Gal(b1-4)GlcNAc(b1-3)Gal(b1-4)GlcNAc(b1-2)[Gal(b1-4)GlcNAc(b1-3)Gal(b1-4)GlcNAc(b1-6)]Man(a1-6)[Gal(b1-4)GlcNAc(b1-3)Gal(b1-4)GlcNAc(b1-2)Man(a1-3)]Man(b1-4)GlcNAc(b1-4)[Fuc(a1-6)]GlcNAc
# Outline: as §1
# [18] = target: Gal(b1-4)GlcNAc(b1-3)Gal(b1-4)GlcNAc(b1-3)Gal(b1-4)GlcNAc
# Outline: as §1
# [19] = target: Gal(b1-4)GlcNAc(b1-3)Gal(b1-4)GlcNAc(b1-3)Gal(b1-4)GlcNAc(b1-2)Man(a1-3)[Gal(b1-4)GlcNAc(b1-3)Gal(b1-4)GlcNAc(b1-3)Gal(b1-4)GlcNAc(b1-2)Man(a1-6)]Man(b1-4)GlcNAc(b1-4)GlcNAc
# Outline: as §1
# [20] = target: Gal(b1-4)GlcNAc(b1-3)Gal(b1-4)GlcNAc(b1-3)Gal(b1-4)GlcNAc(b1-2)Man(a1-3)[Gal(b1-4)GlcNAc(b1-3)Gal(b1-4)GlcNAc(b1-3)Gal(b1-4)GlcNAc(b1-2)Man(a1-6)]Man(b1-4)GlcNAc(b1-4)[Fuc(a1-6)]GlcNAc
# Outline: as §1
# [21] = target: Gal(b1-4)GlcNAc(b1-3)Gal(b1-4)GlcNAc(b1-3)Gal(b1-4)GlcNAc(b1-2)[Gal(b1-4)GlcNAc(b1-3)Gal(b1-4)GlcNAc(b1-3)Gal(b1-4)GlcNAc(b1-6)]Man(a1-6)[Gal(b1-4)GlcNAc(b1-3)Gal(b1-4)GlcNAc(b1-3)Gal(b1-4)GlcNAc(b1-2)Man(a1-3)]Man(b1-4)GlcNAc(b1-4)[Fuc(a1-6)]GlcNAc
# Outline: as §1
# [22] = target: Gal(b1-4)GlcNAc(b1-3)Gal(b1-4)GlcNAc(b1-3)Gal(b1-4)GlcNAc(b1-3)Gal(b1-4)GlcNAc(b1-2)Man(a1-3)[Gal(b1-4)GlcNAc(b1-3)Gal(b1-4)GlcNAc(b1-3)Gal(b1-4)GlcNAc(b1-3)Gal(b1-4)GlcNAc(b1-2)Man(a1-6)]Man(b1-4)GlcNAc(b1-4)GlcNAc
# Outline: as §1
# [23] = target: Gal(b1-4)GlcNAc(b1-3)Gal(b1-4)GlcNAc(b1-3)Gal(b1-4)GlcNAc(b1-3)Gal(b1-4)GlcNAc(b1-2)Man(a1-3)[Gal(b1-4)GlcNAc(b1-3)Gal(b1-4)GlcNAc(b1-3)Gal(b1-4)GlcNAc(b1-3)Gal(b1-4)GlcNAc(b1-2)Man(a1-6)]Man(b1-4)GlcNAc(b1-4)[Fuc(a1-6)]GlcNAc
# Outline: as §1
# [24] = target: Gal(b1-4)GlcNAc(b1-3)Gal(b1-4)GlcNAc(b1-3)Gal(b1-4)GlcNAc(b1-3)Gal(b1-4)GlcNAc(b1-2)[Gal(b1-4)GlcNAc(b1-3)Gal(b1-4)GlcNAc(b1-3)Gal(b1-4)GlcNAc(b1-3)Gal(b1-4)GlcNAc(b1-6)]Man(a1-6)[Gal(b1-4)GlcNAc(b1-3)Gal(b1-4)GlcNAc(b1-3)Gal(b1-4)GlcNAc(b1-3)Gal(b1-4)GlcNAc(b1-2)Man(a1-3)]Man(b1-4)GlcNAc(b1-4)[Fuc(a1-6)]GlcNAc
# Outline: as §1
# [25] = target: Gal(b1-4)GlcNAc(b1-3)Gal(b1-4)GlcNAc(b1-3)Gal(b1-4)GlcNAc(b1-3)Gal(b1-4)GlcNAc(b1-3)Gal(b1-4)GlcNAc(b1-2)Man(a1-3)[Gal(b1-4)GlcNAc(b1-3)Gal(b1-4)GlcNAc(b1-3)Gal(b1-4)GlcNAc(b1-3)Gal(b1-4)GlcNAc(b1-3)Gal(b1-4)GlcNAc(b1-2)Man(a1-6)]Man(b1-4)GlcNAc(b1-4)GlcNAc
# Outline: as §1
# [26] = target: Gal(b1-4)GlcNAc(b1-3)Gal(b1-4)GlcNAc(b1-3)Gal(b1-4)GlcNAc(b1-3)Gal(b1-4)GlcNAc(b1-3)Gal(b1-4)GlcNAc(b1-2)Man(a1-3)[Gal(b1-4)GlcNAc(b1-3)Gal(b1-4)GlcNAc(b1-3)Gal(b1-4)GlcNAc(b1-3)Gal(b1-4)GlcNAc(b1-3)Gal(b1-4)GlcNAc(b1-2)Man(a1-6)]Man(b1-4)GlcNAc(b1-4)[Fuc(a1-6)]GlcNAc
# Outline: as §1
# [27] = target: Gal(b1-4)GlcNAc(b1-3)Gal(b1-4)GlcNAc(b1-3)Gal(b1-4)GlcNAc(b1-3)Gal(b1-4)GlcNAc(b1-3)Gal(b1-4)GlcNAc(b1-2)[Gal(b1-4)GlcNAc(b1-3)Gal(b1-4)GlcNAc(b1-3)Gal(b1-4)GlcNAc(b1-3)Gal(b1-4)GlcNAc(b1-3)Gal(b1-4)GlcNAc(b1-6)]Man(a1-6)[Gal(b1-4)GlcNAc(b1-3)Gal(b1-4)GlcNAc(b1-3)Gal(b1-4)GlcNAc(b1-3)Gal(b1-4)GlcNAc(b1-3)Gal(b1-4)GlcNAc(b1-2)Man(a1-3)]Man(b1-4)GlcNAc(b1-4)[Fuc(a1-6)]GlcNAc
# Outline: as §1
# [28] = target: Gal(b1-4)GlcNAc(b1-3)Gal(b1-4)GlcNAc(b1-3)Gal(b1-4)GlcNAc(b1-3)Gal(b1-4)GlcNAc(b1-3)Gal(b1-4)GlcNAc(b1-3)Gal(b1-4)GlcNAc(b1-2)Man(a1-3)[Gal(b1-4)GlcNAc(b1-3)Gal(b1-4)GlcNAc(b1-3)Gal(b1-4)GlcNAc(b1-3)Gal(b1-4)GlcNAc(b1-3)Gal(b1-4)GlcNAc(b1-3)Gal(b1-4)GlcNAc(b1-2)Man(a1-6)]Man(b1-4)GlcNAc(b1-4)GlcNAc
# Outline: as §1
# [29] = target: Gal(b1-4)GlcNAc(b1-3)Gal(b1-4)GlcNAc(b1-3)GalNAc
# Outline: as §1
# [30] = target: Gal(b1-4)GlcNAc(b1-3)Gal(b1-4)GlcNAc(b1-3)[Gal(b1-4)GlcNAc(b1-3)Gal(b1-4)GlcNAc(b1-6)]GalNAc
# Outline: as §1
# [31] = target: Gal(b1-4)GlcNAc(b1-3)Gal(b1-4)GlcNAc(b1-6)[Gal(b1-3)]GalNAc
# Outline: as §1
# [32] = target: Gal(b1-4)GlcNAc(b1-3)Gal(b1-4)[Fuc(a1-3)]GlcNAc(b1-3)Gal(b1-4)[Fuc(a1-3)]GlcNAc
# Outline: as §1
# [33] = target: Gal(b1-4)GlcNAc(b1-3)GalNAc
# Outline: as §1
# [34] = target: Gal(b1-4)GlcNAc(b1-3)[Fuc(a1-3)GlcNAc(b1-6)]Gal(b1-4)Glc
# Outline: as §1
# [35] = target: Gal(b1-4)GlcNAc(b1-3)[Gal(b1-4)GlcNAc(b1-6)]Gal(b1-4)GlcNAc
# Outline: as §1
# [36] = target: Gal(b1-4)GlcNAc(b1-3)[GlcNAc(b1-6)]Gal(b1-4)GlcNAc
# Outline: as §1
# [37] = target: Gal(b1-4)GlcNAc(b1-6)Gal(b1-4)GlcNAc
# Outline: as §1
binder,measurement,setting,value
B1,glycan array binding signal (z-score),[1],0.128
same,glycan array binding signal (z-score),[2],0.121
same,glycan array binding signal (z-score),[3],-0.122
same,glycan array binding signal (z-score),[4],-0.176
same,glycan array binding signal (z-score),[5],-0.152
same,glycan array binding signal (z-score),[6],-0.116
same,glycan array binding signal (z-score),[7],0.105
same,glycan array binding signal (z-score),[8],-0.044
same,glycan array binding signal (z-score),[9],-0.051
same,glycan array binding signal (z-score),[10],-0.041
same,glycan array binding signal (z-score),[11],-0.164
same,glycan array binding signal (z-score),[12],-0.013
same,glycan array binding signal (z-score),[13],-0.043
same,glycan array binding signal (z-score),[14],-0.064
same,glycan array binding signal (z-score),[15],-0.023
same,glycan array binding signal (z-score),[16],0.008
same,glycan array binding signal (z-score),[17],-0.048
same,glycan array binding signal (z-score),[18],-0.018
same,glycan array binding signal (z-score),[19],0.173
same,glycan array binding signal (z-score),[20],0.154
same,glycan array binding signal (z-score),[21],0.042
same,glycan array binding signal (z-score),[22],-0.017
same,glycan array binding signal (z-score),[23],0.254
same,glycan array binding signal (z-score),[24],-0.061
same,glycan array binding signal (z-score),[25],-0.203
same,glycan array binding signal (z-score),[26],-0.034
same,glycan array binding signal (z-score),[27],0.342
same,glycan array binding signal (z-score),[28],0.137
same,glycan array binding signal (z-score),[29],0.039
same,glycan array binding signal (z-score),[30],-0.082
same,glycan array binding signal (z-score),[31],0.04
same,glycan array binding signal (z-score),[32],-0.035
same,glycan array binding signal (z-score),[33],-0.127
same,glycan array binding signal (z-score),[34],-0.089
same,glycan array binding signal (z-score),[35],-0.305
same,glycan array binding signal (z-score),[36],-0.098
same,glycan array binding signal (z-score),[37],-0.133
